Legend:
bovine α-chymotrypsin = bovine α-chymotrypsin (bovine); test: cell-based or functional assay
[1] = biological target: the molecule itself; test: FRET or BRET; purified AAT labelled with Atto-488-NHS and Atto-594-NHS via primary amines; polymerisation followed by the increase in FRET (excitation 470 nm, emission 605 ± 15 nm) at temperatures between 50 and 65 °C; half-times on an Arrhenius plot

stoichiometry of inhibition: residual activity of bovine α-chymotrypsin at various inhibitor-to-enzyme ratios (bovine α-chymotrypsin): 1.7 fold molar excess (inhibitor over enzyme)
B1: recombinant Gly192Cys alpha-1-antitrypsin (AAT Sydney) (natural protein)
chain: not shown
notes: alpha-1-antitrypsin (AAT, SERPINA1), human, with the patient mutation Gly192Cys (c.646G>T) put into wild-type AAT in pQE-30; also called Gly192Cys AAT; G192C
half-time of polymerisation at 54.8 °C, fold faster than M AAT [1]: 3.8 fold

From publication PMC11753496, “A novel pathological mutant reveals the role of torsional flexibility in the serpin breach in adoption of an aggregation‐prone intermediate” (The Febs Journal, 2024)
